This note sets out measurements from the RNAGym collection of RNA variant scans (doi:10.7554/elife.90254).

The source gives no read counts; variants with many changes may rest on few reads.

The labels stand for the following.
B1: LINE1-mini (parent)
chain: GGCAGAGCUCAACACAGCGUGGCAAAGUGGCUGUGGCUAGACUGCC

The series covers variants of B1. The series can be described thus: self-cleavage, relative activity (ratio to wild type); higher = more cleavage; in vitro, sequencing; the parent is a self-cleaving ribozyme.
For the variant C15U U34A C37U, the self-cleavage came to 0.05.
Next, A12G C18G G19U C23U A26U: 0.02; A6U C10A G40U: 0.01; C23G G30A U32C: 0.15.
For the variant G5C C13G A41C, the self-cleavage amounted to 0.05.
Take G19C A25U G27C: the self-cleavage worked out at 0.23.
Next, U9A G17A G30C G44C: 0.01; G2U C10A C15G A16C A26C G36U: 0.01; G17U C18A G40U C45A: 0.01.
With C8U A14U A26G G44C, the self-cleavage is 0.03.
Turning to C8U A41U U43A, the self-cleavage worked out at 0.64.
In the case of A16G A24U U32C C45A, the self-cleavage was 1.56.
With C8U C42A C45A, the self-cleavage was determined as 0.02.
A4U C23G A24G: the self-cleavage turned out to be 0.06.
On to C18U U20A G36U G40U, for which the self-cleavage amounted to 0.38.
Next, G5U A16U C37U G40C: 0.03.
C10G G17C U20C C23G: the self-cleavage stood at 0.09.
Next, A6U G7A C10A C13G G33A G35U: 0.06; G5U G7A G17A G19C U43A: 0.04.
Regarding G5C C13G G33A, the self-cleavage turned out to be 0.34.
Next, C3G C13G C46G: 0.11; A4U G29A C45A: 0.09; C10A G17A C18G U34A C42A: 0.05.
On to U9G U32G C42A, for which the self-cleavage came out at 0.03.
In the case of G1U G22U A26C G29U A39C, the self-cleavage is 0.02.
As to C13A U20A G44U, the self-cleavage is 0.03.
In the case of C8U G27A G40U G44U C45A, the self-cleavage came to 0.17.
In the case of G5A A25G G40A C42A, the self-cleavage stood at 0.04.
In the case of G2U C3U A12C C31A, the self-cleavage is 0.03.
Regarding A16U G17A C37A C42A, the self-cleavage was found to be 0.06.
Take A11U A25U G35U C42A: the self-cleavage came out at 0.03.
Next, C10U C18A G30C: 0.38; U20G C23G C31A: 0.04; G1C C3A G5C C18U U32G G36C: 0.05.
Consider C13A C15U G19U G30U C45A, for which the self-cleavage stood at 0.01.
Take G7U A25C G29A G35C: the self-cleavage was found to be 0.08.
For A4G U20G U34A, the self-cleavage was 0.09.
Consider C3A C31U G44U C45U C46U, for which the self-cleavage is 0.13.
C3A G36U C42G U43C: the self-cleavage came out at 0.01.
For G1U A4C A11C U28G, the self-cleavage was determined as 0.01.
G5A A11U C13U A16C G30C C37U A41U: the self-cleavage amounted to 0.
On to A39G A41U U43C C46A, for which the self-cleavage amounted to 0.01.
On to G5A C10G G17A C18U G27U G29A C42U, for which the self-cleavage came to 0.04.
Next, A16G G21U G40U: 0.09; G17U U43C C45U C46G: 0.08.
For G5U C15G A16G A25U, the self-cleavage came to 0.03.
On to G2U C18A U32G, for which the self-cleavage came to 0.19.
As for A12G C15U C18A A24G, the self-cleavage is 0.01.
For G1A C31U G40C C45U, the self-cleavage is 0.05.
Regarding U9C C18A A41U, the self-cleavage is 0.
Regarding A6G G17A U28C, the self-cleavage stood at 0.05.
On to C13A U20G G27A C42U C46A, for which the self-cleavage stood at 0.1.
Consider G1C A4G G36A, for which the self-cleavage is 0.1.
As to A25U C31A G40C C45U, the self-cleavage came to 0.
With G2U A16U C37U G44U, the self-cleavage turned out to be 0.01.
In the case of A11G C13A A41U, the self-cleavage was 0.02.
In the case of C3A G5C U20C G29U G44C, the self-cleavage came out at 0.05.
With G1U U9G G33U U38C, the self-cleavage was 0.01.
As to C13A C15A C23A G27C, the self-cleavage was 0.17.
For G1A C13G G44U, the self-cleavage was found to be 0.04.
As for C8A G22C G29C, the self-cleavage was determined as 0.16.
Consider G1A A4G A41C, for which the self-cleavage came out at 0.07.
As for A12G C18A C45U, the self-cleavage was found to be 0.06.
Next, U9A C13A U20C G27C G30U: 0.05; A14G U32C G33U: 0.01; A14U U32G G33C C46A: 0.08.
For the variant A12C A16C G27U, the self-cleavage amounted to 0.01.
In the case of C3G U9G G19C G21C A24C C37U G40A U43G, the self-cleavage was 0.13.
As to G2A C3G G5C A26U, the self-cleavage turned out to be 0.17.
As to A4C A14C G22A, the self-cleavage stood at 0.01.
On to A41C G44U C45U, for which the self-cleavage turned out to be 0.06.
Turning to G29U G36A C42G, the self-cleavage stood at 0.
For the variant G7A A12G G21U, the self-cleavage was 0.03.
In the case of C13U U34C U38A, the self-cleavage amounted to 0.04.
Next, C31A G44A C45G: 0.13; G7C C8G C42U: 0.11.
Turning to G19A A41C G44U, the self-cleavage is 0.04.
For C3U G33C G36U the value was 0.1; for C13G C37G G40A, 0.05.
With U9A G17U A24G A39C, the self-cleavage was 0.02.
On to C10A A14C G21U G27A G33U A39G, for which the self-cleavage stood at 0.01.
As to U9G A25C C37U, the self-cleavage came to 0.05.
For G5A G7C A41U the value was 0.14; for A4G A11C C18G A25C G40C, 0.04; for C3G G17C C46G, 0.2.
On to C13A G17A G19U C46A, for which the self-cleavage was 0.02.
Regarding C8U U20G G35C, the self-cleavage worked out at 0.01.
On to G2C C10G A26C U32A, for which the self-cleavage turned out to be 0.01.
As for A4C A6G G30C, the self-cleavage was found to be 0.26.
In the case of G1U C10G A11G, the self-cleavage was determined as 0.01.
C15G G17A A26C U34C: the self-cleavage is 0.06.
On to G1U G5U U9G, for which the self-cleavage worked out at 0.03.
Next, C23U A24U A25G U34C: 0.03.
In the case of C15A C18A C45U, the self-cleavage was found to be 0.05.
Consider G1U C3U G17U U20G A41U, for which the self-cleavage was 0.06.
On to C3A G17C G19U, for which the self-cleavage is 0.08.
For C3U G19U G44A the value was 0.58; for G1C A6C C46A, 0.16; for G21A G44U C45G, 0.37.
Next, G2C U9A A41U: 0.01.
With G7A C10G A11G, the self-cleavage is 0.
As to C23U A25U G27A, the self-cleavage is 0.57.
In the case of C15U U32A G33C, the self-cleavage was determined as 0.03.
For A14C A25U G27A C31A, the self-cleavage worked out at 0.16.
As for G1A A12U C15A G17A, the self-cleavage was determined as 0.03.
Next, C15U C23U A25G G33U G40U C42A: 0.
For G1C C13A A16G G36C the value was 0.01; for A4C U34G C37G, 0.03.
Turning to G19C G36U C42A, the self-cleavage worked out at 0.01.
Take G7C C23G G44U: the self-cleavage worked out at 0.15.
Consider C13U G36A A41C, for which the self-cleavage is 0.12.
In the case of A11U C42A U43A C45U C46U, the self-cleavage came out at 0.
Regarding G2C C13G C45A, the self-cleavage is 0.02.
Turning to G35U G40U U43G, the self-cleavage came to 0.
Regarding G1U C10A A11U C37A, the self-cleavage was determined as 0.01.
In the case of C10U G19A U20A C37G, the self-cleavage was 0.02.
As to C18A G19C U20G A26C G36A, the self-cleavage came out at 0.06.
Regarding G7A C8U G19U G40C, the self-cleavage is 0.07.
Take G1U C3G G40C: the self-cleavage was determined as 0.05.
Take C3A A12G A14G C31U C46G: the self-cleavage is 0.1.
For A16G G21A C46U the value was 0.43; for G7C G19A A26C, 0.03; for C13A G17A G30A U32C G40U, 0.03.
Turning to G19A G40C C42G, the self-cleavage came out at 0.03.
Take U32C A41C U43C: the self-cleavage was determined as 0.05.
In the case of G27C G29U A39C, the self-cleavage worked out at 0.13.
With A16C C18U G22C C42A, the self-cleavage came to 0.04.
As to G33C G35U U38A C46U, the self-cleavage was determined as 0.02.
On to A14G G30U C31A C45U, for which the self-cleavage was found to be 0.01.
For the variant C23A U34C G35A C45A, the self-cleavage worked out at 0.02.
Take G2A G7U C8U G36C U43G: the self-cleavage turned out to be 0.3.
As for C3U C10G C13U U38G, the self-cleavage stood at 0.01.
Take G7U U20C C42A: the self-cleavage was determined as 0.02.
For C3U C31A A41U the value was 0.08; for G7C G30A U43C, 0.14; for A6G U9G C10G G29A, 0.01.
As to G2A C13U C15U G19C G30U C37U U38A, the self-cleavage was determined as 0.08.
Consider A12G G19U U20G G21C U38C, for which the self-cleavage stood at 0.02.
With C18A A26C A41C, the self-cleavage came out at 0.01.
A11C C15G G30U A41C: the self-cleavage was 0.02.
With G17A U20C G40C, the self-cleavage came to 0.03.
Take U20G C23A C37U C46U: the self-cleavage came out at 0.02.
For U28C U34G G44U the value was 0.04.
As to A14G A26G G27U G35U C37A, the self-cleavage was 0.
Turning to A14C A25C A26C C42A, the self-cleavage worked out at 0.04.
On to G21U G22U A26U G27U G35U, for which the self-cleavage was found to be 0.06.
On to U20G G29U C42A, for which the self-cleavage was found to be 0.04.
In the case of A24G U28C A41G, the self-cleavage was found to be 0.14.
For the variant G17A C18A A24G A25G U28A G30A U32A G33A G36A, the self-cleavage was 0.06.
Regarding G1C C18A U34G, the self-cleavage stood at 0.02.
On to G1A G7U A14C, for which the self-cleavage was 0.11.
In the case of C3U U32A G33U A39G U43A, the self-cleavage turned out to be 0.01.
In the case of G5A G7C G17C G22U G33U, the self-cleavage came to 0.13.
Next, G21A G33C U38G: 0.05; G5A C15A G40A: 0.04.
Turning to G5C C10G C13A C15U C31U U32A, the self-cleavage is 0.02.
For the variant C3A G7U C15G G36A U38C, the self-cleavage was 0.09.
For the variant G30U C42G U43C G44U, the self-cleavage turned out to be 0.07.
In the case of C15U A16G C42A G44A C45U, the self-cleavage was found to be 0.04.
As for A4U G7A U9C C15A U43A, the self-cleavage stood at 0.02.
Consider G30U G35U C45G, for which the self-cleavage was 0.05.
Consider C8U G33C A39U C42G, for which the self-cleavage came to 0.03.
For G7U U9A G22U, the self-cleavage stood at 0.08.
On to A11U C13U U43A, for which the self-cleavage was 0.07.
G5A G7C C10A U28G: the self-cleavage stood at 0.03.
Turning to A24U G35U C46G, the self-cleavage is 0.09.
G2A C8G C15G U34G: the self-cleavage stood at 0.03.
